# Assay results reported in PubChem BioAssay (NCATS).
# This list was built around the results that the source calls inconclusive (neither active nor inactive); the mix of calls is not that of the screen. No potency is given beside an inconclusive call; the fits are too rough. The source made the active and inactive calls. Unless noted, calls follow the shape of the dose curve; as a rule, active = well fitted curve in the direction sought with a large enough effect in the repeat runs; inconclusive = weak or mixed curves; inactive = no such curve, though single readings can be large; an effect the other way counts as inactive or inconclusive.
# Key:
# [1] = target: Cytochrome P450 2C9 (Homo sapiens) (UniProt P11712); test: Cytochrome P450 family 2 subfamily C member 9 (CYP2C9) small molecule antagonists: luciferase biochemical (cell-free) qHTS assay (AID 1645842); conditions: P450-Glo CYP2C9 enzyme assay, luciferin luminescence; series mostly up to 57.4 µM; also: nearly all actives have a fitted effect of over 55% in size
# Chain of UniProt P11712 (P11712 whole entry, looked up): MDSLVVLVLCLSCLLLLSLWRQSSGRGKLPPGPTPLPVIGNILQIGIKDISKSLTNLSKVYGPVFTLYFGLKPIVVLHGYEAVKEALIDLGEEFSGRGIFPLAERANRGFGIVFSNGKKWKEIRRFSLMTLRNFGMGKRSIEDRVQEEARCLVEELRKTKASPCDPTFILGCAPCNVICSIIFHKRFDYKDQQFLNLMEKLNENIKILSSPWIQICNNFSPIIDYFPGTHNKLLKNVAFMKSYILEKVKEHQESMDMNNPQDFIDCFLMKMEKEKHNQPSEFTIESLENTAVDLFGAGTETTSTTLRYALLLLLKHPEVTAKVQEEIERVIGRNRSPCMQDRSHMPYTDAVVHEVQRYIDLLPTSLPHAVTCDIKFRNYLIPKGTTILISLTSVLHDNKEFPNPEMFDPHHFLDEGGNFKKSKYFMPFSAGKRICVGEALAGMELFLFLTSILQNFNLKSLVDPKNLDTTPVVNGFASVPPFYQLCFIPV
# Summary of the method: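 P450-Glo CYP2C9 system: proluciferin substrate with enzyme in mix containing 0.4% BSA, 10 min at room temperature, then NADPH regeneration solution added and incubated 1 h at 37C. Detection reagent stopped reaction; luminescence read after 20 min as RLU.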
# [2] = Primary qHTS for inhibitors of nuclear receptor binding SET domain protein 2 (NSD2) in an isogenic RCH-ACV NSD2 p.E1099K mutant (9B) (AID 1645876; active = well fitted curve in the direction sought with a large enough effect; inconclusive = small, poorly fitted or top-dose-only effect, or another doubt; inactive = no such curve, though single readings can be large; an effect the other way counts as inactive or inconclusive; also: nearly all actives have a fitted effect of over 70% in size); conditions: RCH-ACV NSD2 E1099K (9B) viability, CellTiter-Glo, 72 h; series mostly up to 44.9 µM
# [3] = Primary qHTS for inhibitors of nuclear receptor binding SET domain protein 2 (NSD2) in an RCH-ACV wild type WT cells (2C) (AID 1645877; active = well fitted curve in the direction sought with a large enough effect; inconclusive = small, poorly fitted or top-dose-only effect, or another doubt; inactive = no such curve, though single readings can be large; an effect the other way counts as inactive or inconclusive; also: nearly all actives have a fitted effect of over 70% in size); conditions: RCH-ACV (leukaemia line) NSD2 WT (2C) viability, CellTiter-Glo, 72 h; series mostly up to 44.9 µM
# Potency is read from the fitted curve at half-maximal effect; tags tell the direction and shape of the fitted curve.
structure (smiles),measurement,setting,value
CC(C)(O)c1cc2nc(-c3cnc(N)nc3)nc(N3CCOCC3)c2s1,Potency,[1],"inconclusive [inhibitor, partial curve, poor fit]"
same,Potency,[2],active: 0.372 µM
OC[C@]1(O)OC[C@@H](O)[C@H](O)[C@@H]1O,Potency,[1],inactive
CC(C)(C)c1ccc(O)c(O)c1,Potency,[1],inconclusive [inhibitor]
O=C(O)Cc1ccc2c(c1)C(=O)c1ccccc1CO2,Potency,[1],inactive
O=C(CS)Nc1ccccc1,Potency,[1],active: 4.9 µM
CN(Cc1cc(Br)cc(Br)c1N)C1CCCCC1,Potency,[1],"inconclusive [inhibitor, single point]"
CC(O)(P(=O)(O)O)P(=O)(O)O,Potency,[1],inactive
O=C1CN(/N=C/c2ccc([N+](=O)[O-])o2)C(=O)N1,Potency,[1],inactive
CCCn1cnc2c1c(=O)n(CCCCC(C)=O)c(=O)n2C,Potency,[1],inactive
CSc1ccc2c(c1)C(N1CCN(C)CC1)Cc1ccccc1S2 (stereo not drawn),Potency,[1],"inconclusive [inhibitor, single point]"
O=C(O)c1c(O)c(-c2ccccc2)nc2ccccc12,Potency,[1],"inconclusive [inhibitor, single point]"
CC1=C(C(=O)O)N2C(=O)[C@@H](NC(=O)[C@H](N)C3=CCC=CC3)[C@H]2SC1,Potency,[1],inactive
same,Potency,[2],inactive
same,Potency,[3],"inconclusive [inhibitor, single point]"
c1ccc2c(c1)CCc1ccccc1N2,Potency,[1],"inconclusive [inhibitor, single point]"
CCCC(=O)O[C@]1(C(=O)CCl)[C@@H](C)C[C@H]2[C@@H]3CCC4=CC(=O)C=C[C@]4(C)[C@@]3(F)C(=O)C[C@@]21C,Potency,[1],"inconclusive [inhibitor, partial curve]"
same,Potency,[2],"inconclusive [inhibitor, partial curve, poor fit]"
